Source: patent publication US20170342499A1, “GENOMIC CLASSIFIER THAT PREDICTS RESPONSE TO MULTI-KINASE INHIBITOR TREATMENT INTRODUCTION” (Centre Léon-Bérard, priority 2014, published 2017)

Legend:
[1] = system: advanced solid tumors; settings: discovery cohort, 13 mCRC patients, first-line MTKI
[2] = system: advanced solid tumors; assay: Progression free survival of patients treated with MTKI; assay type: in vivo, human; settings: one patient with thyroid carcinoma, 1st line MTKI, TTC=3
Description: The association between SCNAs and categorical variables was tested using the Mann-Whitney U-test. Association between categorical variables was assessed using Chi-square test. All p-values were two-sided. Survival curves were plotted using the Kaplan Meier method and compared using a log rank test. Statistical analysis was conducted using the SPSS 19.1 Package (SPSS, IBM France). Table 4: List of analysed mutations status by NGC (Ion torrent).

Compound | patients with progressive disease ≦8 weeks (regorafenib resistant) [1] | patients with stable disease or objective response at 8 weeks (regorafenib sensitive) [1] | PFS [2]
CNC(=O)c1cc(Oc2ccc(NC(=O)Nc3ccc(Cl)c(C(F)(F)F)c3)c(F)c2)ccn1 [Regorafenib] | 7 | Six | –
COc1cc2c(Nc3ccc(Br)cc3F)ncnc2cc1OCC1CCN(C)CC1 [Vandetanib] | – | – | 19 months
